Measurements taken from PMC10932545.
Like-named read-outs stand apart in the source and are kept apart here. Results are given in words; binding and its absence hold for the method and conditions named. In cells and extracts the contact can be indirect. Some results given as binding are weak or reduced against the parent protein; the word gives no strength. For some assays here: Where a sequence is shown, tags or fusion partners need not be part of it.

Amino acid sequences for entries named in this document (tags omitted).
UniProt Q62093: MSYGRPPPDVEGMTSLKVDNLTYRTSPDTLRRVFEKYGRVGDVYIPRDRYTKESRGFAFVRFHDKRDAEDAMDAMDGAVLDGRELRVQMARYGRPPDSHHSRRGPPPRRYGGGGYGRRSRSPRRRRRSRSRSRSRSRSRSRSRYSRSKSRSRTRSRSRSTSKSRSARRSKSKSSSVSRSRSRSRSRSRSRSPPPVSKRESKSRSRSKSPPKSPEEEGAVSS
UniProt Q9WTX6: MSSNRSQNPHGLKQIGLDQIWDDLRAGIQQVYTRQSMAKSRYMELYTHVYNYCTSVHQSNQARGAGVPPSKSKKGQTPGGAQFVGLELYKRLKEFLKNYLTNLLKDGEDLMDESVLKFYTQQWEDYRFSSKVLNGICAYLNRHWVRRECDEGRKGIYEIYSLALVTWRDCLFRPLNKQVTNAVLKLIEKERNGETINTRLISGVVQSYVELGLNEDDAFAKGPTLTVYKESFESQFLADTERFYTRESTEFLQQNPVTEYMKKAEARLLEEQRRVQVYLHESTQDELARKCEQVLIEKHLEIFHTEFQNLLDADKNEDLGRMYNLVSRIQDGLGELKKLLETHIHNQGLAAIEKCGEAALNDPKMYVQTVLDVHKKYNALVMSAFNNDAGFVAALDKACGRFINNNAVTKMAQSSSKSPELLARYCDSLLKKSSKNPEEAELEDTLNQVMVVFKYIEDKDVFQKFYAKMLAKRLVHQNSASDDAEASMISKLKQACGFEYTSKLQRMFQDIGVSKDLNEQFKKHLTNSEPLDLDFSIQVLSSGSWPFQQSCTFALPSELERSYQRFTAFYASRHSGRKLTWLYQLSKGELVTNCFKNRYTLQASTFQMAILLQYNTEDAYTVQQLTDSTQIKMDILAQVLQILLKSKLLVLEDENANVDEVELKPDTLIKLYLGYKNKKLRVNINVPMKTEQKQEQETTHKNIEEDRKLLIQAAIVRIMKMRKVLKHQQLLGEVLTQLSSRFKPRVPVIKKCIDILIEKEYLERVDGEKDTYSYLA
UniProt Q9JMB7: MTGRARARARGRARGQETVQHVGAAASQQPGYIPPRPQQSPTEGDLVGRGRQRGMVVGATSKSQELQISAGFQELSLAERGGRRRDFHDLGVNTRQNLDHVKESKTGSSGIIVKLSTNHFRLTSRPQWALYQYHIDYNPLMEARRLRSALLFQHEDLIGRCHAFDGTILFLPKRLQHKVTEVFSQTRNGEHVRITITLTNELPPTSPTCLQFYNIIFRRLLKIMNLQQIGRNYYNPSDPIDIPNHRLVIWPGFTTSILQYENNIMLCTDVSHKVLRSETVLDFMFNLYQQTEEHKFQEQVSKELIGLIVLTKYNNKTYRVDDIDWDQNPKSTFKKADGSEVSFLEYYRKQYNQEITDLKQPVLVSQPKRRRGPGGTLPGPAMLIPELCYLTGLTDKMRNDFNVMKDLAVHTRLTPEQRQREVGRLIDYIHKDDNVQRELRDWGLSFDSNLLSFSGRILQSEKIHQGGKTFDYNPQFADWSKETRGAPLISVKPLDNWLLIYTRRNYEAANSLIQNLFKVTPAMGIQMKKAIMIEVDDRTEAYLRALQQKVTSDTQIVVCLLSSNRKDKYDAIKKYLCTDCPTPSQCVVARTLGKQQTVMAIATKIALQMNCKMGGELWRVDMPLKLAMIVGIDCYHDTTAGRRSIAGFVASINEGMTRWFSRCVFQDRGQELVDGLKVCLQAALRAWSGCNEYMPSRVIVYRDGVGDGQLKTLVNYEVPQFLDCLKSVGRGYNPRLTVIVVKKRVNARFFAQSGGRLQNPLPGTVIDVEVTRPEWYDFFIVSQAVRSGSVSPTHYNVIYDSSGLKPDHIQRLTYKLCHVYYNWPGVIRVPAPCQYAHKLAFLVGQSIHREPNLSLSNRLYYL

T1: FBXO24-HA (FBXO24 with a C-terminal HA epitope tag, from Fbxo24-HA-tagged transgenic mice) (mouse) (UniProt Q9D417)
T1 sequence: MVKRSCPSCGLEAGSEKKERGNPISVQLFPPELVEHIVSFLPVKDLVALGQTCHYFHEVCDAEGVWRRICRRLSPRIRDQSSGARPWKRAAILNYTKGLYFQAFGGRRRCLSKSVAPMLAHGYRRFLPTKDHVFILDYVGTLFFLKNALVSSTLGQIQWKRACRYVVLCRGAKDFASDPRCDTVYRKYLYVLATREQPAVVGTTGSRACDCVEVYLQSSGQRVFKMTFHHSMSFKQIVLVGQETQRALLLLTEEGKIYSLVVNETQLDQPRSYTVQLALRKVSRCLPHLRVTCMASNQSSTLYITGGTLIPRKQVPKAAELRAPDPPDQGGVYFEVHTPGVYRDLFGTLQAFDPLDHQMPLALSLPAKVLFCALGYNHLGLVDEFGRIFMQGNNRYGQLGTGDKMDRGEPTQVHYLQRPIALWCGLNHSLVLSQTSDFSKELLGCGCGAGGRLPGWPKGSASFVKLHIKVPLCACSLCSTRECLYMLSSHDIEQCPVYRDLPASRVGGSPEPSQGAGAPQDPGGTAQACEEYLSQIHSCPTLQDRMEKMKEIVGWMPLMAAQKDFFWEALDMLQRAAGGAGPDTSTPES

T2: FBXO24-mCherry (UniProt Q9D417)
T2 sequence: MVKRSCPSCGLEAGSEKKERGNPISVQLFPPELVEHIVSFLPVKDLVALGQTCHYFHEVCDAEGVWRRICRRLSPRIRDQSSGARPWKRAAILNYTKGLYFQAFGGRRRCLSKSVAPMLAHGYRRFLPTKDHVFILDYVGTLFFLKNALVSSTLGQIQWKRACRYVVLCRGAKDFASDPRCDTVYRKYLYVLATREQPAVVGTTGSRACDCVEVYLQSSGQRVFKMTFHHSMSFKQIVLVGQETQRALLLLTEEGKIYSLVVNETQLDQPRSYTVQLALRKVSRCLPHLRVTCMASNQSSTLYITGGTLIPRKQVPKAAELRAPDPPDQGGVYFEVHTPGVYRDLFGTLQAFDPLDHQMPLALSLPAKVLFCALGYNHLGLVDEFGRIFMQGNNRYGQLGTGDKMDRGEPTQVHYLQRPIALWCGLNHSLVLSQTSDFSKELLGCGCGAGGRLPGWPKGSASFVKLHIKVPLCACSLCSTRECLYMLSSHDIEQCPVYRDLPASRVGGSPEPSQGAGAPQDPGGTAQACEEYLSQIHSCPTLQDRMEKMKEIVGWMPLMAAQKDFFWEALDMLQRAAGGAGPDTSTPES

T3: truncated FBXO24 that contains only the F-box domain (mCherry-tagged) (UniProt Q9D417)
T3 sequence: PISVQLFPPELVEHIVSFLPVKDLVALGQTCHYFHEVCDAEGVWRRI


Legend:
[1] = biological target: T1, FBXO24-HA (FBXO24 with a C-terminal HA epitope tag, from Fbxo24-HA-tagged transgenic mice) (mouse); assay: co-IP; testis lysate of Fbxo24-HA-tagged mice in IP buffer, anti-HA nanobody agarose beads, 4°C overnight, western blot; wild-type testis as negative control
FBXO24-mCherry = biological target: T2, FBXO24-mCherry; assay: co-IP; FBXO24-mCherry expressed in HEK293T cells, incubated with the testicular protein lysate; anti-mCherry beads; western blot; mCherry vector as control
[2] = biological target: T3, truncated FBXO24 that contains only the F-box domain (mCherry-tagged); assay: co-IP; HEK293T cells transfected with the indicated plasmids, 48 hr; mCherry-Trap beads, 4°C 2 hr, wash 10 mM Tris-HCl pH 7.5, 150 mM NaCl, 0.5 mM EDTA; western blot
[3] = biological target: T1, FBXO24-HA (FBXO24 with a C-terminal HA epitope tag, from Fbxo24-HA-tagged transgenic mice) (mouse); assay: co-IP; testis lysate of Fbxo24-HA-tagged mice in IP buffer, anti-HA nanobody agarose beads, 4°C overnight, western blot; wild-type testis as negative control; remark: listed apart in the source

| Molecule | binding [1] | binding (FBXO24-mCherry) | binding [3] | further results |
| --- | --- | --- | --- | --- |
| SRSF2 (from UniProt Q62093 1-221) | binds |  |  |  |
| CUL1 (from UniProt Q9WTX6 1-776) | binds | binds |  |  |
| MIWI (from UniProt Q9JMB7 1-862) | binds | binds |  |  |
| MIWI-myc (from UniProt Q9JMB7 1-862) |  |  |  | binding [2]: binds |
| SRSF3 (protein, UniProt P84104 1-164) MHRDSCPLDCKVYVGNLGNNGNKTELERAFGYYGPLRSVWVARNPPGFAFVEFEDPRDAADAVRELDGRTLCGCRVRVELSNGEKRSRNRGPPPSWGRRPRDDYRRRSPPPRRRSPRRRSFSRSRSRSLSRDRRRERSLSRERNHKPSRSFSRSRSRSRSNERK |  |  | binds |  |
| transition protein TNP1 (protein, UniProt P10856 1-55) MSTSRKLKTHGMRRGKNRAPHKGVKRGGSKRKYRKSVLKSRKRGDDASRNYRSHL |  |  | no binding |  |
